Assay results reported in ChEMBL document CHEMBL1157539, “Thousands of chemical starting points for antimalarial lead identification” (Nature, 2010).
Over roughly 13,000 compounds, “IFI” has its median near 4; the highest 2% begin near 17. The list shows a part of the results.

assay: GSK_TCMDC: Inhibition Frequency Index (IFI). The number of non-kinase HTS assays where a compound showed > 50 % inhibition, expressed as a percentage of the number of such assays in which the compound was tested (-0 is zero); type: functional

Row | Compound | IFI
1 | COc1ccccc1N1CCN(CCCCNC(=O)c2ccc(NC(=O)c3ccc(OC(F)(F)F)cc3)cc2)CC1 | 4.2%
2 | CN1CCN(CCc2ccc3nc(-c4csc(Cc5cc(Cl)ccc5OCc5ccccc5)n4)[nH]c3c2)CC1 | 10.2%
3 | CC1CN(c2ccc(NC(=O)c3ccc(F)cc3)cc2)CCN1Cc1cccc(F)c1 (centres undefined) | 2.86%
4 | N#Cc1cnc2cc(-c3cnc(CNCCN4CCOCC4)s3)ccc2c1Nc1ccc(Oc2ccccc2)cc1 | 1.45%
5 | O=C(Nc1ccc(C(=O)N2CCN(CCN3CCN(c4cccc(C(F)(F)F)c4)CC3)CC2)cc1)c1ccc(C(F)(F)F)cc1 | 9.4%
6 | CCOC(=O)c1nc(-c2ccc(-c3ccccc3)cc2)[nH]c1N | 2.84%
7 | Cc1nc(N/C(N)=N/C(=O)NC2CCCCC2)nc2ccccc12 | 8.28%
8 | Cc1c(CNCCCNc2nc3cscc3[nH]2)sc(C(F)F)c1Br | 3.62%
9 | CC1(C)N=C(NC(=O)c2cc([N+](=O)[O-])cc([N+](=O)[O-])c2)N=C(N)N1OCc1cccc2ccccc12 | 1.46%
10 | Cc1ccc(N2C(N)=NC(N)=NC2(C)C)cc1 | 2.19%
11 | Nc1ccc(-c2ccc3ccnc(N)c3c2)cc1 | 9.09%
12 | Cc1ccc(NC(=O)Nc2ccc(Cl)cc2)cc1-c1cccc(C(=O)Nc2ccc(F)cc2)c1 | 15.9%
13 | COc1ccc2ncc(F)c([C@H](O)CN3CCC(NCc4cc5c(cn4)OCCO5)CC3)c2c1 | -0%
14 | COc1cc(NC(=O)Nc2ccc([N+](=O)[O-])cc2OC)c(OC)cc1Cl | 1.83%
15 | CN1CCC(C(=O)Nc2cccc(-c3ccc(-c4nc5ccccc5[nH]4)cc3)c2)CC1 | 4.31%
16 | COc1ccc2ncc(F)c(CCN3CC(O)C(CNCc4ccc(F)cc4)C3)c2n1 (centres undefined) | 3.88%
17 | CCN1CCN(CCNc2c3ccccc3nc3ccccc23)CC1 | 6.02%
18 | COc1cccc2c(N/N=C/c3ccccc3[N+](=O)[O-])cc(C)nc12 | 1.47%
19 | C[C@@H](CC1CCCCC1)OC(=O)N[C@H]1CCN(C#N)C1 | 2.94%
20 | CC(C)(C)c1cc(C(=O)N2CCN(c3nccnc3C#N)CC2)n(Cc2ccccc2)n1 | 1.45%
21 | O=C(NCCCCN1CCC(c2ccc3c(c2OCc2ccncc2)CCCC3)CC1)c1ccc(NC(=O)c2ccc(Cl)cc2)cc1 | 9.57%
22 | O=C(Nc1ccc(Cl)c(C(F)(F)F)c1)Nc1ccc(Cl)c(C(F)(F)F)c1 | 12.7%
23 | COc1cc2nccc(Nc3cccc(Oc4ccccc4)c3)c2cc1OC | 1.44%

Row | Compound | IFI
24 | N#Cc1ccc(NC(=O)N2CCCN(CCCCCNC(=O)/C=C/c3ccc(Cl)c(Cl)c3)CC2)cc1 | 4.7%
25 | COc1ccc2ccc(F)c(CC(=O)N3CCOC(CNCc4cccc(-c5ccc(F)cc5)n4)C3)c2n1 (centres undefined) | 2.78%
26 | CC(Cc1ccc(Cl)cc1)Nc1nc(NC2CCCC2)nc(N2CCC(C#N)(c3ccccc3)CC2)n1 (centres undefined) | 0.77%
27 | COc1ccc2nccc([C@@H](O)CN3CCC(NCc4ccc(OC)c(NC(C)=O)c4)CC3)c2c1 | -0%
28 | CN(C)CCOc1ccc(-c2cc(-c3ccncc3)c(-c3ccc(Cl)c(O)c3)o2)cc1 | 6.99%
29 | Cc1ccccc1OCC(O)CNC1CCC(NCC(O)COc2ccccc2C)CC1 (centres undefined) | 14.1%
30 | Fc1ccc2c(NN=Cc3ccccc3)ccnc2c1 | 2.88%
31 | CN(C)CCNCc1cccc(-c2ccc3c(Nc4ccc(Oc5ccccc5)cc4)ccnc3c2)c1 | 5.04%
32 | C=CCN(c1ccc(OC)cc1)S(=O)(=O)c1ccc(Cl)c(C(=O)Nc2cccc(C#N)c2)c1 | 3.95%
33 | CS(=O)(=O)c1ccc(CCNCc2ccc(-c3ccc(CNC4Cc5ccccc5C4)cc3)nc2)cc1 | 5.44%
34 | Oc1ccc(-c2cc(COc3ccccc3C(F)(F)F)c(C3=CCNCC3)cc2COc2ccccc2C(F)(F)F)cc1 | 17.3%
35 | N#Cc1ccnc(-c2ccc(CNC3CCN(CC4Cn5c(=O)ccc6ccc(F)c4c65)CC3)cc2)c1 (centres undefined) | 1.85%
36 | CCn1cnc2c(N3CCCS3(=O)=O)cc(C(=O)N[C@@H](Cc3ccccc3)[C@H](O)CNC(C)(C)c3cccc(C(F)(F)F)c3)cc21 | 3.73%
37 | CC(C)(C)c1ccc(CN2CCC(CNC(=O)c3cc(-c4ccccc4C(F)(F)F)cs3)C2)cc1 (centres undefined) | 13.7%
38 | CCN(CCN(C)C)Cc1ccc(-c2ccc(NS(=O)(=O)c3cccc(Cl)c3)cc2)cc1 | 9.52%
39 | CCNc1cc(C(=O)N[C@@H](Cc2ccccc2)[C@H](O)CNC(C)(C)c2cccc(OC)c2)cc(N2CCCC2=O)c1 | 2.36%
40 | CCCN(CCCCNC(=O)c1ccc(-c2cccnc2)cc1)C1CCc2c(O)cccc2C1 (centres undefined) | 2.05%
41 | CCc1sc(-c2cc(Cl)ccc2OC)nc1C(=O)NCCN1CCCCC1 | 4%
42 | NOCCCCOc1ccccc1 | -0%
43 | Cc1ccc(Cc2c[nH]c(NCCSCc3ccc(CN(C)C)s3)nc2=O)cn1 | -0%
44 | COc1cc2c(C3CCN(CC4CCN(C(=O)/C=C/c5ccc(Cl)c(Cl)c5)CC4)CC3)c[nH]c2cn1 | 1.54%
45 | CC(C)CNCc1ccc(-c2ccc(CNC3CCN(Cc4ccccc4)CC3)cc2)cc1 | 3.52%
46 | COc1cc(CNc2ccc(N3CCCC3)cc2)cc(Cl)c1OC | 11.7%

Row | Compound | IFI
47 | O=C(Nc1cccc(CN2CCCN(Cc3ccc(O)cc3)CC2)c1)c1ccc2ccccc2c1 | 3.42%
48 | Cc1cccc2nc(-c3ccc(-c4ccc(CNCC5CCCO5)cc4)s3)[nH]c12 (centres undefined) | 5.88%
49 | CCN(CC)CCOC(=O)c1ccc(NC(=O)c2cc(-c3ccc(C)cc3)nc3ccccc23)cc1 | 7.97%
50 | c1cncc(Oc2ccc(Nc3ccnc4cc(-c5cccc(CN6CCOCC6)c5)ccc34)cc2)c1 | 3.79%
51 | Cc1cccc(CC2CC(=O)N(c3ccc([N+](=O)[O-])cc3)C2=O)c1 (centres undefined) | 2.11%
52 | O=C(CC1CCCC1)N(Cc1ccc(-c2ccc(CNC3Cc4ccccc4C3)cc2)cc1)CC1CCCCN1 (centres undefined) | 4.48%
53 | COc1ccc2c(=NN=CC=Cc3ccccc3)cc(C)[nH]c2c1 | 4.14%
54 | COc1ccc(NC(=O)NC2CCN(c3ccnc4ccccc34)C2)cc1 (centres undefined) | 0%
55 | Cc1[nH]c(C)c(-c2ccc(-c3cccc(Cl)c3)nc2)c(=O)c1Cl | 1.82%
56 | O=C(Nc1ccc(C(=O)Nc2ccc(C3=NCCN3)cc2)cc1)Nc1ccc(C2=NCCN2)cc1 | 5.84%
57 | Nc1nc(N)c2c(Cl)c(CNc3cccc(C(=O)O)c3)ccc2n1 | 2.34%
58 | CCOC(=O)c1nc(-c2cccnc2)[nH]c1NC(=S)NCc1ccccc1 | 3.15%
59 | N[C@@H](COc1cccc2c(-c3ccncc3)c(-c3cccc(NC(=O)Nc4ccccc4)c3)nn12)c1ccccc1 | 10.2%
60 | COc1ccc(Cn2c(SCc3ccc(C)cc3)nc3cc(OC)c(OC)cc3c2=N)cc1Cl | 14.5%
61 | Cc1cc(F)ccc1Nc1nc(N(C)c2ccccc2)c2cccc(OCCO)c2n1 | 6.99%
62 | COc1cccc(C(O)CNc2ccnc(Nc3cccc(-c4csc(C)n4)c3)n2)c1 (centres undefined) | 10.6%
63 | O=C(NCCCCN1CCC(c2c[nH]c3ccccc23)CC1)c1sc(-c2ccc(C(F)(F)F)cc2)nc1CO | 2.68%
64 | CCCN1CCCN(Cc2cccc(NC(=O)c3ccc(-c4ccccc4)cc3)c2)CC1 | 3.45%
65 | COc1ccc2nccc([C@@H](O)CN3CCC(NC(=O)C(c4cc5ccccc5o4)N4CCN(Cc5ccccc5)CC4)CC3)c2c1 (some centres undefined) | 4.83%
66 | O=C(Nc1cccc(CN2CCCN(Cc3ncc[nH]3)CC2)c1)c1ccc(Cl)c(Cl)c1 | 2.67%
67 | CCC[C@@H]([C@@H](CC1CCCCC1)C(=O)N[C@@H](CCOC(=O)NCC)C(=O)Nc1nccs1)N(O)C=O | 3.17%
68 | COc1ccc(-c2cc(C(=O)N[C@@H](Cc3ccccc3)C(=O)NCCN3CCCCC3)ccc2O)cc1 | 0.75%
69 | O=C(CN1C(=O)CC1S(=O)(=O)Cc1ccco1)NCCCCCCc1ccc(F)cc1 (centres undefined) | 4.35%

Row | Compound | IFI
70 | CN(C)c1ccc(-c2csc(C(=O)NCC3CCN(CCC(C)(C)C)C3)c2)cc1 (centres undefined) | 8.16%
71 | CC1(C)NC(N)=NC(=N)N1OCc1cccc(Cl)c1Cl | 1.42%
72 | Cc1cc(NC(=O)NCCN2CCC(NC(=O)c3ccc(C(F)(F)F)cc3)CC2)c2ccccc2n1 | 1.69%
73 | COc1ccc(Nc2ncc(OC)c(Nc3ccccc3C(N)=O)n2)cc1N1CCN(C)CC1 | 11.5%
74 | CCN(CCNC(=O)Cn1c(C)cc2cc([N+](=O)[O-])ccc21)c1cccc(C)c1 | 2.1%
75 | CS(=O)(=O)n1c(CN2CCN(c3ncc(C(F)(F)F)cc3Cl)CC2)nc2ccccc21 | -0%
76 | Nc1cccc(CNCc2cccc(-c3ccc(-c4nc5ccccc5[nH]4)s3)c2)c1 | 5.71%
77 | CS(=O)(=O)N(c1ccccc1)c1cc(C(=O)N[C@@H](Cc2ccccc2)[C@H](O)CNC2CCCCC2)cc(N2CCCC2=O)c1 | 2.29%
78 | O=C(C=Cc1ccc(Cl)c(Cl)c1)NCCCCCN1CCC(c2n[nH]c3ccccc23)CC1 | 4.2%
79 | COc1ccc(-c2cccc(NC(=O)c3ccc(Cl)cc3)c2)cc1CN(C)CCN(C)C | 11.7%
80 | Cc1cc(N2Cc3ccccc3C2)nc(Nc2cccc(C#N)c2)n1 | 2.7%
81 | O=C(NCCNc1ccnc(NCc2ccc(F)cc2)n1)c1cc2ccccc2s1 | 3.03%
82 | CCC(C)NCc1c(O)ccc2c(CNC(C)CC)c(O)ccc12 (centres undefined) | 2.21%
83 | C=CCOc1cccc2c1CCN(CCN1CCC(NC(=O)c3ccc(-c4ccc(Cl)cc4)cc3)CC1)C2 | 7.58%
84 | Cc1cccc2nc(-c3cccc(-c4cccc(NC(=O)c5ccncc5)c4)c3)[nH]c12 | 8.7%
85 | CCC1=C(CC2NCCc3cc(OC)c(OC)cc32)CC2c3cc(OC)c(OC)cc3CCN2C1 (centres undefined) | 10.8%
86 | COCCOc1ccc(Nc2nccc(-c3c(-c4cccc(NC(=O)c5c(F)cccc5F)c4)nn4ccccc34)n2)cc1Cl | 5.3%
87 | COc1cc(NC(=O)N2CCOC(CCN3CCC4(CCc5ccccc54)CC3)(c3ccc(Cl)c(Cl)c3)C2)cc(OC)c1 (centres undefined) | 6.16%
88 | CCOC(=O)c1c(CN2CCCC2)n(-c2ccccc2)c2cc(Br)c(O)cc12 | 2.14%
89 | Fc1cccc(COc2ccc(Nc3ncnc4sc(C#CC5CCCCN5)cc34)cc2Cl)c1 (centres undefined) | 12.9%
